Reference: PubChem BioAssay AID1460 (National Center for Advancing Translational Sciences (NCATS), 2008)
“And” between values parts separate entries of the source, which are not always exact repeats. Equal entries are not always repeated. The campaign covered roughly 270,000 compounds. About 5,800 (2.1%) were called active. Inconclusive results, whose numbers are uncertain, are shown with a selection of clear calls. The call rests on the fitted dose curve; in most records, active means well fitted inhibition curve with a large enough effect; inconclusive means small, poorly fitted or top-dose-only effect; inactive means flat fitted curve, though single readings scatter. Potencies beside an inconclusive call are fits to weak or partial responses and may not hold up.

These compounds were tested against Microtubule-associated protein tau (Homo sapiens) (UniProt P10636) (assay: qHTS for Inhibitors of Tau Fibril Formation, Thioflavin T Binding). Conditions: recombinant tau K18 P301L, heparin-induced fibrillization, ThT fluorescence; series mostly up to 57.4 µM; activity, negative = inhibition: at the top concentration.
Chain of UniProt P10636 (P10636 whole entry, looked up): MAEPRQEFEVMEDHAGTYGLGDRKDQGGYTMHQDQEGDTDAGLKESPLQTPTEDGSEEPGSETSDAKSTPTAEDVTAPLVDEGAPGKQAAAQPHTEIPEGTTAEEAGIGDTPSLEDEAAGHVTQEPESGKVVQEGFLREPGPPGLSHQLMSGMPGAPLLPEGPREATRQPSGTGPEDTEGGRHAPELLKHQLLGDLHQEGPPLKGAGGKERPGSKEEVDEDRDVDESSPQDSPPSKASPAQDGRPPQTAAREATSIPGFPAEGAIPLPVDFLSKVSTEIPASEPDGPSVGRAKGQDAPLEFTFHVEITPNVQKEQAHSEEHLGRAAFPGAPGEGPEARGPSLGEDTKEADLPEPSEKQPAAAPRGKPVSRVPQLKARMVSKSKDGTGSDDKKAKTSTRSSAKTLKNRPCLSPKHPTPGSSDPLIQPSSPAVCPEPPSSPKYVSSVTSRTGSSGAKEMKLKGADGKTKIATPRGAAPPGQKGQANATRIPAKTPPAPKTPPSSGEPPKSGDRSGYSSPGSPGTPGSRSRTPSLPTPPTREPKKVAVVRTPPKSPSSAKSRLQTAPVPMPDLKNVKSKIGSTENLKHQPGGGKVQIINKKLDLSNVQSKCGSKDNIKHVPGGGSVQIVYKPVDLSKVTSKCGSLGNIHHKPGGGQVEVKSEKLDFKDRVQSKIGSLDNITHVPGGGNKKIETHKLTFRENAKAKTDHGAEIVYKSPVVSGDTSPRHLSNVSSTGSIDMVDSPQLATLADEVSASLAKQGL
How it was run: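 ThT emission at 510 nm, taken 1 hr after adding 30 uM dye, quantifies aggregates formed when 20 uM heparin acts on human tau K18 P301L for 6 hr at 37 C.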
Further: nearly all actives have a fitted effect of over 55% in size.
On the % scale 0 is the no-effect control and ±100 the full control effect; potency means the concentration at half of the fitted maximal effect; tags describe the fitted curve by direction and shape.

| Compound | activity, negative = inhibition | Potency |
| --- | --- | --- |
| O=C(Cn1ccn(-c2cccc(Cl)c2)c(=O)c1=O)c1ccc(F)cc1 | inactive: -17.2% | – |
| Cc1ccc2c(c1)CC(C)N2S(=O)(=O)c1nnc(NC(=O)c2ccccc2F)s1 (configuration not stated) | – | inconclusive: 7.94 µM [inhibitor, partial curve] |
| CCCCCC(=O)N=Nc1c(O)[nH]c2ccc([N+](=O)[O-])cc12 | inactive: -11.4% | – |
| COc1cc(/C=N/N2CCN(C3c4ccccc4-c4ccccc43)CC2)cc(OC)c1OC | inactive: -14.5% | – |
| C=Cc1ccc(CSc2nnc(C)n3c2cc2occc23)cc1 | – | inconclusive: 22.4 µM [inhibitor, partial curve] |
| Cc1cc(-c2nn3c(-c4ccccc4)nnc3s2)c2ccccc2n1 | – | inconclusive: 5.01 µM [inhibitor, full curve] |
| Cc1c(/C=N/N2C(=O)C3C4C=CC(C4)C3C2=O)c2ccccc2n1C (configuration not stated) | inactive: -16.2% | – |
| CC(=O)Nc1ccc(S(=O)(=O)Nc2nc(-c3ccc(C(C)(C)C)cc3)cs2)cc1 | – | inconclusive: 25.1 µM [inhibitor, single point] |
| CC(=NCCCn1ccnc1)c1c(-c2ccccc2)[nH]n(-c2nc3ccccc3s2)c1=O | – | inconclusive: 39.8 µM [inhibitor, single point] |
| O=C(O)/C=C/C(=O)Nc1ccc(Oc2ccc(NC(=O)/C=C/C(=O)O)cc2)cc1 | – | inconclusive: 25.1 µM [inhibitor, single point] |
| CCn1c(C(C)NC(C)=O)nc2ccccc21 (configuration not stated) | inactive: 1.29% | – |
| CCOC(=O)c1ccc(NC(=O)N2CCN(CCc3ccccc3)CC2)cc1 | inactive: 0.791% | – |
| CC(=O)n1cc([C@@H]2C=C(C(=O)NCc3ccccc3)O[C@H](OCCCCO)C2)c2ccccc21 | – | inconclusive: 17.8 µM [inhibitor, single point] |
| COC(=O)C1(C(=O)OC)CC(CO)C(=O)[C@H]1c1ccccc1 (some centres not stated) | – | inconclusive: 7.94 µM [inhibitor, partial curve] |
| Oc1c(C=Nc2ccc(Cl)cn2)sc2ccccc12 | – | inconclusive: 0.708 µM [inhibitor, full curve] |
| Cc1cccc(C(=O)Nc2cccc(C(=O)N3CCOCC3)c2)c1 | inactive: -0.135% | – |
| CC1=C(C(=O)Nc2ccccc2C)C(c2ccc(C)o2)N2C(=O)CSC2=N1 (configuration not stated) | – | inconclusive: 35.5 µM [inhibitor, single point] |
| CC1OC(Oc2c(-c3cc(O)c(O)c(O)c3)oc3cc(O)cc(O)c3c2=O)C(O)C(O)C1O (configuration not stated) | – | inconclusive: 31.6 µM [inhibitor, partial curve] |
| O=C(Nc1ccc(N2CCCC2)c(Cl)c1)c1ccc([N+](=O)[O-])o1 | – | active: 8.91 µM |
| Cc1ccc(-c2nnc(CSc3nnc(COc4ccccc4)n3-c3ccccc3)o2)cc1 | – | inconclusive: 14.1 µM [inhibitor, partial curve, poor fit] |
| Cc1ccc(C(=O)CSc2cnc3ccccc3n2)cc1C | – | inconclusive: 15.8 µM [inhibitor, partial curve] |
| COc1ccc(CCn2c(N)c(C#N)c3nc4ccccc4nc32)cc1OC | – | inconclusive: 28.2 µM [inhibitor, partial curve, poor fit] |
| COc1ccc(CCNC(=O)CCCCn2c(=O)c3ccccc3n(Cc3ccc(Cl)cc3)c2=O)cc1OC | inactive: -15.4% | – |

| Compound | activity, negative = inhibition | Potency |
| --- | --- | --- |
| CCOc1ccc(-c2cn3c(n2)sc2cc(C(=O)NCCCN(CC)CC)ccc23)cc1 | inactive: 1.23% | – |
| Cc1cc(N2CCN(C)CC2)nc2ccc(NC(=O)c3ccc4c(c3)OCO4)cc12 | – | inconclusive: 15.8 µM [inhibitor, partial curve] |
| CCOC(=O)c1ccc(NC(=O)C(C)N(c2ccc(OCC)cc2)S(C)(=O)=O)cc1 (configuration not stated) | – | inconclusive: 22.4 µM [inhibitor, single point] |
| CC(=O)Oc1ccc2c(=O)c(Oc3ccccc3[N+](=O)[O-])coc2c1 | – | inconclusive: 12.6 µM [inhibitor, partial curve] |
| CCC(=O)N1CCCc2cc(S(=O)(=O)N3CCC(C(=O)Nc4ccccc4CC)CC3)ccc21 | – | inconclusive: 7.94 µM [inhibitor, single point] |
| Cc1ccc(/C=N/N=C/c2ccc(C)s2)s1 | – | inconclusive: 11.2 µM [inhibitor, partial curve] |
| Cc1ccc(Cl)cc1N1CCN(CCCNC(=O)c2nnc(Cc3cccc(Cl)c3)o2)CC1 | – | inconclusive: 44.7 µM [inhibitor, single point] |
| O=C(NC(=S)Nc1ccccc1[N+](=O)[O-])c1ccco1 | – | inconclusive: 28.2 µM [inhibitor, single point] |
| CCOC(=O)C1=C(O)/C(=C/c2cc(C)n(-c3ccccc3)c2C)N=C1C | – | inconclusive: 25.1 µM [inhibitor, partial curve, poor fit] |
| N#CNC(=Nc1cccc(C(F)(F)F)c1)SCc1ccc(C(=O)O)cc1 | – | inconclusive: 17.8 µM [inhibitor, partial curve, poor fit] |
| CN(CCC#N)S(=O)(=O)c1ccc2[nH]cc(C(=O)NCCc3ccccc3)c(=O)c2c1 | inactive: 9.27% | – |
| COc1cccc(-c2nc(CSCC(=O)N3CCc4ccccc43)c(C)o2)c1 | – | inconclusive: 22.4 µM [inhibitor, single point] |
| Cc1ccccc1Nc1nnc(SCc2cc([N+](=O)[O-])cc3c2OCOC3)s1 | inactive: -6.31% | – |
| COC(=O)Cc1c(C)c2ccc3c(c2oc1=O)CN(Cc1ccccc1OC)CO3 | – | inconclusive: 35.5 µM [inhibitor, single point] |
| COc1ccc(NC(=O)N2CCCC(c3nc(-c4ccc(OC)cc4)no3)C2)cc1 (configuration not stated) | – | inconclusive: 25.1 µM [inhibitor, single point] |
| CC(CNC(=O)Cn1c(-c2cccs2)cc2ccccc21)c1ccccc1 (configuration not stated) | inactive: -4.38% | – |
| Cc1oc(-c2ccc(Cl)cc2)nc1CSCC(=O)NCc1ccccc1Cl | – | inconclusive: 28.2 µM [inhibitor, single point] |
| O=S(=O)(Nc1cccc2nsnc12)c1ccccc1 | – | inconclusive: 31.6 µM [inhibitor, partial curve] |
| COC(=O)C/C=C\[C@@H](C)[C@@H]1C=C[C@H](OC(C)=O)[C@H](COC(C)=O)O1 | inactive: -4.22% [at 11.5 µM] | – |
| COc1cccc(C(=O)Nc2c(C(=O)c3ccc(F)cc3)oc3ccccc23)c1 | inactive: -2.82% | – |
| Cc1ccc2c(CC(=O)N(Cc3ccc(Cl)cc3)Cc3ccco3)coc2c1 | – | inconclusive: 12.6 µM [inhibitor, partial curve] |
| CC1CCN(c2cc(N)c(Cl)cc2[N+](=O)[O-])CC1 | – | inconclusive: 10 µM [inhibitor, partial curve, poor fit] |
| Cc1cc(N2CCN(c3ccc(F)cc3)CC2)nc(-c2ccccc2)n1 | – | inconclusive: 20 µM [inhibitor, partial curve] |

| Compound | activity, negative = inhibition | Potency |
| --- | --- | --- |
| CC(=O)NC(Cc1ccccc1C)C(=O)NC1CCN(C(=O)c2cccc(C)c2)CC1 (configuration not stated) | inactive: -1.35% | – |
| CCN(CC(=O)Nc1c(C(=O)OC)[nH]c2ccc(Cl)cc12)c1ccc2c(c1)OCO2 | – | inconclusive: 12.6 µM [inhibitor, partial curve] |
| CCn1c(=N)n(CC(=O)c2cccc(OC)c2)c2ccccc21 | – | inconclusive: 10 µM [inhibitor, partial curve] |
| CC(C)(S)[C@@H](N)C(=O)O | – | inconclusive: 25.1 µM [inhibitor, partial curve] and inconclusive: 11.2 µM [inhibitor, partial curve] |
| CC1=CC(=O)C2=C(C)C[C@H](OC(=O)Cc3ccccc3)C3[C@H](OC(=O)[C@H]3C)C12 (some centres not stated) | inactive: -11.7% | – |
| CCCOc1ccc(NC(=O)CC2C(=O)N(c3ccc(Cl)cc3)C(=O)N2CCc2ccncc2)cc1 (configuration not stated) | – | inconclusive: 0.282 µM [activator, full curve, poor fit] |
| C=CCCCCCCCCCCCC(O)CC(O)COC(C)=O (configuration not stated) | – | inconclusive: 35.5 µM [inhibitor, single point] |
| COc1ccc(C(=O)C2CCCN(C(=O)c3noc4c3CCCC4)C2)c(C)c1 (configuration not stated) | inactive: -12.3% | – |
| COc1ccc(N2CCCn3c2nc2c3c(=O)n(Cc3ccccc3F)c(=O)n2C)c(OC)c1 | inactive: -12.5% | – |
| Cc1cccc(OCC(=O)Nc2ccc(Cl)c(-c3nc4ccccc4[nH]3)c2)c1 | – | inconclusive: 0.891 µM [inhibitor, full curve, poor fit] |
| CN1CCc2nc3sc(C(=O)Nc4cccc(C#N)c4)c(N)c3cc2C1 | – | active: 12.6 µM |
| Oc1ccc(/C=C/c2ccnc3ccccc23)cc1 | – | inconclusive: 7.08 µM [inhibitor, partial curve] |
| O=c1[nH]sc2ccccc12 | – | active: 11.2 µM |
| O=C1Nc2ccc(Cl)cc2C12Nc1ccccc1-c1nnc(SCc3ccccc3F)nc1O2 (configuration not stated) | inactive: -2.81% | – |
| Cc1ccc(NC(=O)c2sc3nc(-c4ccc(F)cc4)ccc3c2N)cc1F | – | inconclusive: 1.78 µM [inhibitor, full curve] |
| COc1ccc(NC(=O)CN2C(=O)COc3ccc(S(=O)(=O)N4CCCCC4)cc32)cc1Cl | inactive: -4.33% | – |
| COc1cc(NC(=O)C2CCCO2)c(OC)cc1Cl (configuration not stated) | inactive: -8.05% | – |
| CCN(c1ccc(NC(=O)COC(=O)CCC(=O)c2ccc(F)cc2)cc1)C(C)C | – | inconclusive: 31.6 µM [inhibitor, partial curve, poor fit] |
| Cc1oc(-c2cccs2)nc1CS(=O)CC(=O)NCCCOC(C)C (configuration not stated) | – | inconclusive: 25.1 µM [inhibitor, single point] |
| COc1ccccc1OCC(=O)N/N=C1\CCc2ccccc21 | – | inconclusive: 15.8 µM [inhibitor, partial curve] |
| Cc1ccc(/C=C/C(O)=C2/C(=O)N(C)C3(C)CC2c2ccccc2O3)cc1 (configuration not stated) | – | inconclusive: 20 µM [inhibitor, single point] |
